About 4,700 (1.2%) of roughly 390,000 compounds were called active. Inconclusive means that the source gave no clear call. Such entries were picked first, then a sample of the others. Calls follow the shape of the dose curve; as a rule, active = well fitted inhibition curve with a large enough effect; inconclusive = small, poorly fitted or top-dose-only effect, or another doubt; inactive = no such curve, though single readings can be large or run the other way. A potency beside an inconclusive call is a rough fit, not a confirmed value.
These compounds were tested against DNA polymerase eta (Homo sapiens) (UniProt Q9Y253) (assay: qHTS for Inhibitors of Polymerase Eta). Conditions: recombinant Pol eta, fluorescent DNA replication assay; series mostly up to 114 µM.
Sequence of UniProt Q9Y253 (Q9Y253 whole entry, looked up): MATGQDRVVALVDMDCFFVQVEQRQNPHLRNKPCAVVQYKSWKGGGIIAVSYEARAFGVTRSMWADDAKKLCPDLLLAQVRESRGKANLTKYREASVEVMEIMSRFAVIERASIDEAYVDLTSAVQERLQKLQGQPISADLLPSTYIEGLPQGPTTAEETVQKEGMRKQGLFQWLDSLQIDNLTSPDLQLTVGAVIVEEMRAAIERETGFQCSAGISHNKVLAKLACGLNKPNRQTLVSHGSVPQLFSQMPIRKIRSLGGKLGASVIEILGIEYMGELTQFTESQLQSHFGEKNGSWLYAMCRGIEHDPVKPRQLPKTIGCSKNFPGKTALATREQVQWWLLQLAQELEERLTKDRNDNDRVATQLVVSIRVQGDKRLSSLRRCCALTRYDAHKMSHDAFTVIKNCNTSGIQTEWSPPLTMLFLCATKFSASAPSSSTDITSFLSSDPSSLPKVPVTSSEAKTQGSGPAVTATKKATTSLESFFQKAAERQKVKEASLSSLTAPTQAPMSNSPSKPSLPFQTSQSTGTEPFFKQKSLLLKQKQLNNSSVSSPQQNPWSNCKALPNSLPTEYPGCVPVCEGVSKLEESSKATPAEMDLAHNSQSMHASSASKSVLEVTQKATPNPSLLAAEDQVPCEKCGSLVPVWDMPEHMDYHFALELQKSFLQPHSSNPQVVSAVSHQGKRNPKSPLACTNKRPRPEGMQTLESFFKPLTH
Summary of the method: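 Pol eta (10 nM) was preincubated with compounds for 15 min at room temperature, after which fluorescent replication substrate (50 nM final) was added to start the reaction. Fluorescence was read kinetically at 0 and 10 min.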
For CCc1nc2ccc(C(=O)O)cc2nc1CC, the Potency was active: 14.1 µM. For CCc1ccc(/C=C/C(=O)c2c(C)cc(C)[nH]c2=O)cc1, the Potency was inconclusive: 17.8 µM [inhibitor, partial curve, poor fit]. For COc1ccc(OC)c(S(=O)(=O)N2CCC(C(=O)NCc3ccncc3)CC2)c1, the Potency was inconclusive: 89.1 µM [inhibitor, partial curve, poor fit]. For COc1ccc(NC(=S)Nc2cc(C)cc(C)n2)cc1OC, the Potency was inconclusive: 20 µM [inhibitor, partial curve, poor fit]. With Cc1cccc(Nc2nc(N)c([N+](=O)[O-])c(N3CCCC(C)C3)n2)c1 (stereo not drawn) the Potency was “inactive”. COc1cccc(C2C(C(=O)c3cc4cccc(OC)c4o3)=C(O)C(=O)N2c2cc(C)on2)c1OC (stereo not drawn) was tested, and the Potency was inconclusive: 20 µM [inhibitor, partial curve]. In the case of COc1ccc2c(C)cc(SCC(=O)Nc3ccc(Cl)cn3)nc2c1, the Potency is reported as inconclusive: 28.2 µM [inhibitor, single point]. C/C(=N/Nc1ccc(C(=O)O)cc1)c1ccc2c(c1)Nc1ccccc1S2 was tested, and the Potency was active: 17.8 µM. CCCc1ccc(C(=O)NNC(=O)c2ccc(Br)cc2)cc1 was tested, and the Potency was inconclusive: 15.8 µM [inhibitor, partial curve]. For O=C(CNC(=O)N1CC(=O)Nc2ccccc21)Nc1cc(Cl)ccc1Cl, the Potency was “inactive”. For N#Cc1ccsc1NC(=O)COc1ccc(-c2nnco2)cc1, the Potency was active: 20 µM. In the case of CC(=O)Nc1ccc(S(=O)(=O)N(C)CC(=O)OCC(=O)N2CCCCCC2)cc1, the Potency is reported as “inactive”. With CCOC(=O)c1cc([N+](=O)[O-])c([N+](=O)[O-])cc1NC(C)=O the Potency was inconclusive: 89.1 µM [inhibitor, partial curve]. For CCOC(=O)C1CCN(C(c2ccccn2)c2c(C)[nH]c3ccccc23)CC1 (stereo not drawn), the Potency was inconclusive: 89.1 µM [inhibitor, partial curve, poor fit]. COc1cc(C(C)=O)ccc1OC(=O)c1cc2cccc(OC)c2oc1=O was tested, and the Potency was inconclusive: 79.4 µM [inhibitor, single point]. In the case of CC(C)Cn1cnc2c1c(=O)n(CC(=O)Nc1ccc3c(c1)OCO3)c(=O)n2Cc1ccccc1, the Potency is reported as inconclusive: 17.8 µM [inhibitor, full curve, poor fit]. In the case of Cc1ccccc1CNC(=O)CCS(=O)(=O)c1cc2c3c(c1)CCN3C(=O)CC2, the Potency is reported as inconclusive: 100 µM [inhibitor, partial curve, poor fit]. With O=C(/C=C/c1ccco1)NC(=S)Nc1ccc(O)c(-c2nc3ccccc3s2)c1 the Potency was inconclusive: 14.1 µM [inhibitor, partial curve, poor fit]. With O=C(c1ccccc1)c1c2c(cc3sc4ccccc4[n+]13)-c1cccc3cccc-2c13 the Potency was active: 22.4 µM. For FC(F)Oc1ccc(NC(=S)NCC2COc3ccccc3O2)cc1 (stereo not drawn), the Potency was inconclusive: 89.1 µM [inhibitor, single point]. CC1CN(S(=O)(=O)c2cccc(C(=O)OCc3cc(=O)oc4cc(O)ccc34)c2)CC(C)O1 (stereo not drawn) was tested, and the Potency was inconclusive: 89.1 µM [inhibitor, single point]. In the case of Cc1cccc(/C=C(\C(=O)O)c2ccc(S(=O)(=O)N3CCCC3)s2)c1, the Potency is reported as active: 12.6 µM. With CCN(CC)CCNC(=O)c1ccc(Cl)c(S(=O)(=O)Nc2ccccc2OC)c1 the Potency was inconclusive: 79.4 µM [inhibitor, partial curve, poor fit]. With Cc1cc(C)c2c(=O)cc(C(=O)Nc3sc4c(c3C(=O)NCC3CCCO3)CCCC4)oc2c1 (stereo not drawn) the Potency was “inactive”. COc1cccc2c1C(=O)c1c(O)c3c(c(O)c1C2=O)CC(O)(C(C)=NNC(=O)c1ccc(Cl)c(Cl)c1)CC3OC1CC(N)C(O)C(C)O1 (stereo not drawn) was tested, and the Potency was active: 12.6 µM. COc1ccc(-n2nc(C(=O)NCCCN3CCOCC3)c3ccccc3c2=O)c(OC)c1 was tested, and the Potency was inconclusive: 100 µM [inhibitor, single point]. Cc1ccccc1-n1c(SC/C(O)=C(\C#N)c2nc3ccccc3[nH]2)nnc1-c1ccncc1 was tested, and the Potency was inconclusive: 31.6 µM [inhibitor, single point]. For CCOC(=O)/C=C(\C)Sc1cc(O)c2ccccc2c1O, the Potency was active: 28.2 µM. In the case of Clc1ccc(-c2nnc3sc(Cc4cccs4)nn23)cc1, the Potency is reported as inconclusive: 31.6 µM [inhibitor, partial curve]. CN(Cc1cc(-c2ccccc2)on1)C(=O)c1cc(COc2c(F)cccc2F)on1 was tested, and the Potency was inconclusive: 79.4 µM [inhibitor, partial curve, poor fit]. In the case of COc1ccc(/C=C2\SC(=S)NC2=O)cc1OS(=O)(=O)c1ccc(NC(C)=O)cc1, the Potency is reported as inconclusive: 56.2 µM [inhibitor, partial curve, poor fit]. In the case of O=C1NC(c2ccc(Br)cc2)Nc2sc3c(c21)CCC3 (stereo not drawn), the Potency is reported as inconclusive: 15.8 µM [inhibitor, full curve, poor fit]. For CC1CCN(c2nn3c(=O)c(C(=O)NC(C)C)cnc3s2)CC1, the Potency was “inactive”. For CN1CCN(C(=O)CNC(=O)c2cccs2)CC1, the Potency was inconclusive: 4.47 µM [inhibitor, full curve, poor fit]. O=C(NCC(c1ccco1)S(=O)(=O)c1cccs1)c1ccc(F)c(F)c1 (stereo not drawn) was tested, and the Potency was “inactive”. For O=C(O)c1cccc(-c2ccc(/C=N/Nc3ccc([N+](=O)[O-])cc3)o2)c1, the Potency was inconclusive: 25.1 µM [inhibitor, partial curve, poor fit]. With O=C(O)CCc1ccc(-c2ccccc2)n1Cc1ccco1 the Potency was active: 15.8 µM. Cc1cc(=O)n(Cc2ccc(Cl)cc2)c2c1c(C)nn2-c1ccccc1 was tested, and the Potency was “inactive”. In the case of CCN(CC(=O)NC1CCS(=O)(=O)C1)C(C)C(=O)Nc1ccc(F)cc1 (stereo not drawn), the Potency is reported as “inactive”. For N#Cc1nc(-c2ccc(COc3ccc(Cl)cc3)o2)oc1N1CCC(C(N)=O)CC1, the Potency was “inactive”. Cc1nn(C)c(C)c1Sc1ccc(Br)cc1 was tested, and the Potency was inconclusive: 79.4 µM [inhibitor, partial curve, poor fit]. Cc1cc(C)cc(OCC(=O)OCC(=O)NC2CCCCCCC2)c1 was tested, and the Potency was inconclusive: 0.708 µM [inhibitor, full curve, poor fit]. In the case of COc1ccc(Oc2c(OC)cc(NCc3ccc(CN)cc3)c3ncccc23)cc1, the Potency is reported as active: 3.16 µM. In the case of Cc1nn(C)c2c1c(-c1ccccc1)cc(=O)n2CC(=O)NC(C)c1ccccc1 (stereo not drawn), the Potency is reported as active: 25.1 µM. Cc1ccc(-n2nc(-c3ccco3)cc2C(=O)O)cc1 was tested, and the Potency was active: 14.1 µM. In the case of O=C(Cn1c(COc2ccccc2)nc2ccccc21)Nc1cccc(Cl)c1, the Potency is reported as inconclusive: 11.2 µM [inhibitor, partial curve, poor fit]. In the case of CCN(CCO)Cc1csc2ccc(C(C)(C)C)cc12, the Potency is reported as inconclusive: 100 µM [inhibitor, partial curve, poor fit]. With CCOc1ccc(S(=O)(=O)N(C)c2ccc(OCC(=O)Nc3nccs3)cc2)cc1 the Potency was “inactive”. With CCCCCCn1c(-c2ccco2)nc2oc3cc(OC)ccc3c(=O)c2c1=O the Potency was inconclusive: 89.1 µM [inhibitor, single point]. In the case of O=C(Cc1c2ccccc2nc2ccccc12)c1ccccc1, the Potency is reported as inconclusive: 11.2 µM [inhibitor, partial curve, poor fit]. N#C/C(=C(/O)COC(=O)CCc1ccc(S(=O)(=O)N2CCOCC2)cc1)c1nc2ccccc2[nH]1 was tested, and the Potency was active: 14.1 µM. With N#CC(C#N)=C1c2cc(S(N)(=O)=O)ccc2-c2ccc(S(N)(=O)=O)cc21 the Potency was inconclusive: 79.4 µM [inhibitor, partial curve]. CC1=[N+](C)N(c2ccccc2)C(=O)C1N=Cc1c(Cl)cccc1Cl (stereo not drawn) was tested, and the Potency was “inactive”. In the case of Cc1ccc(C)c(S(=O)(=O)NC(C)CCc2ccccc2)c1 (stereo not drawn), the Potency is reported as inconclusive: 70.8 µM [inhibitor, partial curve, poor fit]. In the case of O=C(/C=C/c1ccco1)c1cccc([N+](=O)[O-])c1, the Potency is reported as active: 20 µM. With Cc1cccc(NC(=O)CSc2nnc(-c3ccco3)c(-c3ccco3)n2)c1C the Potency was active: 12.6 µM. For [O-][n+]1cccc2cccc(O)c21, the Potency was “inactive”. For COc1ccc(C(=O)CSc2nc(C(C)(C)C)nc3ccccc23)cc1, the Potency was inconclusive: 100 µM [inhibitor, partial curve, poor fit]. With O=C(O)CC(CCc1ccccc1)OC1OC(CO)C(O)C(O)C1O (stereo not drawn) the Potency was active: 0.794 µM. With COc1cc(C(=O)NNC(=O)/C=C/c2ccco2)cc(OC)c1OC the Potency was inconclusive: 39.8 µM [inhibitor, partial curve, poor fit]. With COc1cccc(NC(=O)CSc2nnc(-c3ccco3)c(-c3ccco3)n2)c1 the Potency was active: 20 µM. COc1ccc2nc(-c3ccccc3)cc(C(=O)OCC(=O)N3CC(C)OC(C)C3)c2c1 (stereo not drawn) was tested, and the Potency was active: 79.4 µM. With COc1ccc(CCNc2nc(SCc3ccc(Cl)cc3)nc3ccccc23)cc1OC the Potency was “inactive”. In the case of CN(C)C1(CN=Cc2cc(Cl)cc([N+](=O)[O-])c2O)CCCCC1, the Potency is reported as inconclusive: 56.2 µM [inhibitor, partial curve, poor fit]. With Cc1cc(C(=O)N/N=C/c2ccc(-c3ccccc3Cl)o2)n[nH]1 the Potency was inconclusive: 20 µM [inhibitor, single point]. With Cc1nnc(SCC2=C(C(=O)O)N3C(=O)C(NC(=O)COc4ccc(F)cc4)C3SC2)s1 (stereo not drawn) the Potency was active: 3.98 µM. For COCCN1C=C2C(=O)C(C)(OC(=O)CCC(=O)OC)C(=O)C(Br)=C2C=C1c1ccc(OC)cc1 (stereo not drawn), the Potency was inconclusive: 89.1 µM [inhibitor, single point]. For N#CC(c1nc2ccccc2nc1OCCO)S(=O)(=O)c1ccccc1 (stereo not drawn), the Potency was inconclusive: 79.4 µM [inhibitor, partial curve, poor fit].

— PubChem BioAssay AID588591 (National Center for Advancing Translational Sciences (NCATS), 2011)
Potency is read from the fitted curve at half-maximal effect; tags tell the direction and shape of the fitted curve.
